Measurements: PubChem BioAssay (Tox21)
Inconclusive means that the source gave no clear call. Such entries were picked first, then a sample of the others. Where the call is inconclusive, the potency comes from a doubtful curve fit. Calls of active or inactive are those of the source. Calls come from the whole dose curve; as a rule, active = well fitted activation curve with a large enough effect in the repeat runs; inconclusive = weak or mixed curves; inactive = flat fitted curve, though single readings scatter.

test: A CellTox Green Cytotoxicity Assay to monitor cytotoxicity in HepG2 cells - 32 hour (AID 1224883); conditions: CellTox Green fluorescence; series mostly up to 76.8 µM; note: nearly all actives have a fitted effect of over 50% in size
In short: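 HepG2 cells were seeded together with the CellTox Green dye at 600 cells/well, left 5 h at 37 C/5% CO2, then given compounds in DMSO. Fluorescence from dye bound to dead-cell DNA was read repeatedly over 40 h of treatment at 37 C.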
Potency is the fitted concentration of half-maximal effect; tags give direction and shape of the fitted curve.

Compound	Potency
Cc1onc(-c2ccccc2)c1C(=O)Cl	inconclusive: 26.8 µM [activator, single point]
CN1CCN(C2=Nc3ccccc3Oc3ccc(Cl)cc32)CC1	inconclusive: 16.9 µM [activator, partial curve]
CC[C@H]1CC[C@H](NCc2cc3c(cc2OC)[C@H]2C[C@H]2C(=O)N3C)[C@H](c2ccccc2)N1	inconclusive: 54.9 µM [activator, single point]
CCN(CC)CCCC(C)Nc1ccnc2cc(Cl)ccc12 (stereo not given)	inconclusive: 10.4 µM [activator, partial curve]
COc1cc2c(cc1OC)-c1cc(=Nc3c(C)cc(C)cc3C)n(C)c(=O)n1CC2	inconclusive: 19 µM [activator, partial curve]
Brc1c(NC2=NCCN2)ccc2nccnc12	inactive
O=C1CCCCCCCCCCC(=O)OCCO1	active: 24.5 µM
CC(C)c1nnc2ccc(-c3ocnc3-c3cc(F)ccc3F)cn12	inactive
CCOC(=O)/C=C/C(=O)O	inactive
CNC(=S)NC	inconclusive: 54.9 µM [activator, partial curve, poor fit]
Cc1ccccc1N=O	inactive
O=C(O)Cc1c(Cl)ccc(Cl)c1Cl	inactive
CCCCCC(C)=O	inconclusive: 54.9 µM [activator, partial curve, poor fit]
COc1ccc([C@@H]2Sc3ccccc3NC(=O)[C@@H]2O)cc1	inconclusive: 26.8 µM [activator, single point]
CCc1c2c(nc3ccc(OC(=O)N4CCC(N5CCCCC5)CC4)cc13)-c1cc3c(c(=O)n1C2)COC(=O)[C@]3(O)CC	inconclusive: 26.8 µM [activator, single point]
